Assay results as given in patent US6203824A (priority 1992, dated 2001).

settings: based on TLV values

Point of comparison: `P` [Phosphine, phosphine], “Relative ranking, mammalian toxicity” value 2. Against it:
- CBr [Methyl bromide, methyl bromide] — higher, 3
- O=C=S [carbonyl sulphide] — lower, 1
